Reference: the supplement of paper PMC11417369
± gives the standard deviation of the averaged measurements. The list shows a part of the results.

These sequences were tested on PfAP2-I AP2 domain 3 (GST-tagged) (assay: gcPBM binding intensity (ln(normalized median fluorescence intensity)); higher = stronger DNA binding).
Method in brief: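 GST-fused DNA-binding domains of P. falciparum, expressed in E. coli, were applied at about 25 μg on average for 1 h to an Agilent 4 × 180k array of primer-extended double-stranded 36-bp intergenic genomic probes and negative controls. Binding intensity is the highest Masliner-normalised natural-log median intensity across replicate spots of either probe orientation, measured with Alexa488 anti-GST antibody and a 488 nm scan.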

Which “gcPBM binding intensity (ln)” value does the source give for “AACTATTTTATTATATGTACTTACGAATTTATAAAA [XGTACX_site5262]” here?
Its value is 7.87 ± 0.35.

With “AATGTAGGTTTATTTACACACAAATATAAATATATA [CACACA_site1523]” as the sequence, how does the “gcPBM binding intensity (ln)” value read?
Its value is 7.6 ± 0.44.

For “TGTGTTGTAACAAAATGTACGAGCTTGATGTAGAAT [XGTACX_site2293]”, which “gcPBM binding intensity (ln)” value is on record?
The value was 8.13 ± 0.66.

“ATAAACTGATGTGTATGTACACATGTAATAATAAAT [XGTACX_site7649]” was tested. Which “gcPBM binding intensity (ln)” value did it give?
The value was 7.89 ± 0.42.

How did the “gcPBM binding intensity (ln)” value turn out when “ATGTAAAACATAAAATGTACATATTATACAAACTAT [XGTACX_site5797]” was run?
The value was 7.92 ± 0.47.

How did the “gcPBM binding intensity (ln)” value turn out when “TAAGTATAAATATTTACACACATTTGTTTTTTTTTA [CACACA_site7731]” was run?
Its value is 7.49 ± 0.4.

Which “gcPBM binding intensity (ln)” value does the source give for “AATAAAATAATAAAAGCACACAAGAATACAGACAAA [CACACA_site112]” here?
The value was 8.46 ± 0.59.

“GGATAATATATTAGAACACACATATATCTGTAAAAA [CACACA_site4266]” was tested. Which “gcPBM binding intensity (ln)” value did it give?
Its value is 7.74 ± 0.53.

How did the “gcPBM binding intensity (ln)” value turn out when “TAATATAATATATGCACACAAATATGTATATATGTG [CACACA_site2134]” was run?
The value was 8.895 ± 0.049.

With “TTGGATTTTCCATAATGTACACATAAAAGTGTTACA [XGTACX_site4544]” as the sequence, how does the “gcPBM binding intensity (ln)” value read?
Its value is 7.5 ± 0.41.

“TTTTAAAAAATATAATATAATATAATATAAAATAAA [CACACA_negctrl_site154]” was tested. Which “gcPBM binding intensity (ln)” value did it give?
The value was 7.39 ± 0.32.

For “TTCTTATCAAGAGAAAGTACATAAAAAATTAATAAG [XGTACX_site1821]”, which “gcPBM binding intensity (ln)” value is on record?
Its value is 8.12 ± 0.18.

Which “gcPBM binding intensity (ln)” value does the source give for “CAAAACCTACATAACATACACACGCATATATAGAAT [CACACA_site2846]” here?
Its value is 7.9 ± 0.4.

“CCAACAAAAATAAGCACACACAAATATACATACATA [CACACA_site3606]” was tested. Which “gcPBM binding intensity (ln)” value did it give?
Its value is 8.06 ± 0.29.

With “CATGCAATATTAAACACACACTCATATAGCACAATA [CACACA_site6182]” as the sequence, how does the “gcPBM binding intensity (ln)” value read?
Its value is 10.8 ± 0.49.

“ACAGTATCTGGTAGCTGTACGGATTGTAGAGAGTAG [XGTACX_site4872]” was tested. Which “gcPBM binding intensity (ln)” value did it give?
Its value is 8.46 ± 0.36.

For “AGAATAATAAAATGGGTGCAATAGTTTTTTTTTTTT [GTGCAC_site9823]”, which “gcPBM binding intensity (ln)” value is on record?
Its value is 11.2 ± 0.44.

“TATTAAAGGGGTTTCACACACATGTATAATTAATTT [CACACA_site200]” was tested. Which “gcPBM binding intensity (ln)” value did it give?
Its value is 7.69 ± 0.57.

Which “gcPBM binding intensity (ln)” value does the source give for “AATTTGTTATGTATATGTACATAAATAGATATATGA [XGTACX_site3930]” here?
The value was 7.82 ± 0.54.

With “AACCATATTTAGATTACACACAGTTTAAATATTTTA [CACACA_site6712]” as the sequence, how does the “gcPBM binding intensity (ln)” value read?
The value was 7.58 ± 0.57.

With “AATATGAACAGACACACACACACAAAAAAAAAAAAA [CACACA_site2012]” as the sequence, how does the “gcPBM binding intensity (ln)” value read?
Its value is 7.98 ± 0.71.

“TCTTGACGAAGTAGAAGGATATATATATAAAAAAAA [CACACA_negctrl_site641]” was tested. Which “gcPBM binding intensity (ln)” value did it give?
The value was 7.85 ± 0.59.

“AGGAGGTCAGTTCACAGTACCCAGAAAACTCTACGA [XGTACX_site1992]” was tested. Which “gcPBM binding intensity (ln)” value did it give?
The value was 7.84 ± 0.27.

“TCCAGGTATTTATTCTGTACACATAAAACATTTTAT [XGTACX_site8472]” was tested. Which “gcPBM binding intensity (ln)” value did it give?
Its value is 7.79 ± 0.48.

With “TCGTCTCTTCTTGTTCTGTTTTAGAAGGCTATATAT [CACACA_negctrl_site180]” as the sequence, how does the “gcPBM binding intensity (ln)” value read?
The value was 8.02 ± 0.65.

With “ATATATATATATATATGTACATATTTTAATAATTAA [XGTACX_site8549]” as the sequence, how does the “gcPBM binding intensity (ln)” value read?
Its value is 9.51 ± 0.42.

How did the “gcPBM binding intensity (ln)” value turn out when “TGTTGTTACATATATACACACATATATATATTATAT [CACACA_site2397]” was run?
The value was 7.83 ± 0.52.

Which “gcPBM binding intensity (ln)” value does the source give for “CGCGCACACGGACACACACACACACGGATATAAATA [CACACA_site7102]” here?
The value was 8.05 ± 0.33.

Which “gcPBM binding intensity (ln)” value does the source give for “TGGTATATATTTCCTTGTACATATAATATATATTGT [XGTACX_site3961]” here?
Its value is 7.75 ± 0.64.

For “TAATATAGTATAGTATGTACATATAATTAGAATATT [XGTACX_site4053]”, which “gcPBM binding intensity (ln)” value is on record?
The value was 8.15 ± 0.41.

With “CATATTTCTTTATTGGCACACATTTTTTCAATTATA [CACACA_site1618]” as the sequence, how does the “gcPBM binding intensity (ln)” value read?
Its value is 8.32 ± 0.56.

With “TGAAATAAATAATGCACACTCTACAGATATACGTAT [CACACA_site5270]” as the sequence, how does the “gcPBM binding intensity (ln)” value read?
Its value is 11.1 ± 0.66.

How did the “gcPBM binding intensity (ln)” value turn out when “TTGAAAATACAAAATTGTACAAAGATTTAAATAAAA [XGTACX_site1182]” was run?
The value was 7.75 ± 0.63.

“AAAAAAAAAAAAAACACACACAAATTTAATCTATAT [CACACA_site6894]” was tested. Which “gcPBM binding intensity (ln)” value did it give?
The value was 8.22 ± 0.5.

How did the “gcPBM binding intensity (ln)” value turn out when “TGTTATTACTTTATATCATCTTAAAATAAGCATATT [CACACA_negctrl_site1501]” was run?
The value was 7.47 ± 0.61.

For “TATTTATTTATGTGTTGTACAAATAAATAGAGGTAT [XGTACX_site6408]”, which “gcPBM binding intensity (ln)” value is on record?
The value was 8.16 ± 0.48.

With “ATATATTAAAAACGATGTACCCTGAACTAAAAAAAA [XGTACX_site4986]” as the sequence, how does the “gcPBM binding intensity (ln)” value read?
Its value is 7.75 ± 0.52.

Which “gcPBM binding intensity (ln)” value does the source give for “TTTATTTATTACAATTTTTGAATCACCACACAGTCG [GTGCAC_negctrl_site413]” here?
Its value is 7.88 ± 0.13.

Which “gcPBM binding intensity (ln)” value does the source give for “ATCATGTTATATACATGTACATATATATATATATAT [XGTACX_site1329]” here?
Its value is 9.47 ± 0.71.

How did the “gcPBM binding intensity (ln)” value turn out when “TATATGAAAATGTTCATACACACATAAAAAAAAAAA [CACACA_site3237]” was run?
The value was 7.96 ± 0.7.

For “TAGTTTTCTTAAAGATGTACATTTTAAAAATAATCT [XGTACX_site255]”, which “gcPBM binding intensity (ln)” value is on record?
The value was 7.955 ± 0.021.

With “TAGATATATAATTTGCGTACACAAATAATATATTTT [XGTACX_site6397]” as the sequence, how does the “gcPBM binding intensity (ln)” value read?
The value was 7.97 ± 0.2.

For “AATACAAATATATACACACATACATACATACATATA [CACACA_site3147]”, which “gcPBM binding intensity (ln)” value is on record?
Its value is 7.82 ± 0.47.

How did the “gcPBM binding intensity (ln)” value turn out when “ATATATATATGTTACTGTACTAATTTATATGTTAAT [XGTACX_site3341]” was run?
Its value is 9.28 ± 0.16.
